Where “and” joins values, the source holds several entries; their conditions need not be identical. Equal entries are not always repeated. The campaign covered roughly 410,000 compounds. About 6,400 (1.6%) were called active. The inconclusive results got no clear call from the source; some entries with a clear call stand among them for comparison. The call rests on the fitted dose curve; in most records, active means well fitted inhibition curve with a large enough effect; inconclusive means small, poorly fitted or top-dose-only effect; inactive means no such curve, though single readings can be large or run the other way. Where the call is inconclusive, the potency comes from a doubtful curve fit.
target: Glucagon-like peptide 1 receptor (Homo sapiens) (UniProt P43220); test: qHTS of GLP-1 Receptor Inverse Agonists (Inhibition Mode); settings: HEK293 GLP-1R CRE-luciferase, luminescence, 24 h, GLP-1R form is constitutively active; series mostly up to 38.3 µM; further: nearly all actives have a fitted effect of over 55% in size
Summary of the method: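 HEK293 cells stably co-expressing a cAMP-responsive luciferase reporter and constitutively active GLP-1R were seeded, incubated 12 h, then exposed to compounds for 24 h at 37 C. Luminescence was read 12 min after detection reagent; inverse agonists lower signal.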
Potency means the concentration at half of the fitted maximal effect; tags describe the fitted curve by direction and shape.

UniProt P43220, sequence (P43220 whole entry, looked up): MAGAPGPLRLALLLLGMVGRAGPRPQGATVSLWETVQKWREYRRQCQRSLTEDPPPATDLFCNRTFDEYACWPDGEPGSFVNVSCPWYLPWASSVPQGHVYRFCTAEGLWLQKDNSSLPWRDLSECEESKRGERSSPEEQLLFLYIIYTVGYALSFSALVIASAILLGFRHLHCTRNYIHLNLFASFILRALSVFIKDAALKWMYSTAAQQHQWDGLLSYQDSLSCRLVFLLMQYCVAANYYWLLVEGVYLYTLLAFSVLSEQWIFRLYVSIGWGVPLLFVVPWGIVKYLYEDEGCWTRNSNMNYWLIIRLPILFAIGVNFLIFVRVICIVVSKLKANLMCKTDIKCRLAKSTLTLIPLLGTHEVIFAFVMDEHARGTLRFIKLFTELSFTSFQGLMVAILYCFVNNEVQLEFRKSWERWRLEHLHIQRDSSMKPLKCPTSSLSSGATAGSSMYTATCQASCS

Row | SMILES | Potency
1 | S=C(Nc1ccc(Br)cc1)NC1CCN(Cc2ccccc2)CC1 | inconclusive: 1.26 µM [inhibitor, full curve, poor fit]
2 | NC(c1ccccc1)c1csc(NC(=O)Nc2ccccc2Oc2ccccc2)n1 (stereo unspecified) | inconclusive: 28.2 µM [inhibitor, single point]
3 | CC1(C(=O)Nc2ccccc2)CCN1C(=O)C1(c2ccc(Cl)cc2)CC1 (stereo unspecified) | inconclusive: 7.94 µM [inhibitor, partial curve, poor fit]
4 | CC(C)(C)c1ccc(C(=O)c2c[nH]c(C(=O)NCCCn3ccnc3)c2)cc1 | inconclusive: 7.94 µM [inhibitor, partial curve, poor fit]
5 | COc1ccc(C(=O)Nc2nc(CC(=O)NCCc3ccccc3)cs2)cc1 | inconclusive: 11.2 µM [inhibitor, partial curve, poor fit]
6 | CCOC(=O)CN1CC23C=CC(O2)C(C(=O)O)C3C1=O (stereo unspecified) | inactive
7 | Cc1cccc(NC(=O)CCC(=O)N/N=C/c2ccc(O)cc2O)c1 | inconclusive: 12.6 µM [inhibitor, single point]
8 | C1=C(CCNc2ncnc3c2cnn3-c2ccccc2)CCCC1 | inconclusive: 7.94 µM [inhibitor, partial curve]
9 | O=c1c2cc(F)ccc2sn1-c1ccccc1Cl | inconclusive: 10 µM [inhibitor, partial curve, poor fit]
10 | O=C(Nc1nc(-c2ccccc2)c(-c2ccccc2)o1)c1ccc(F)cc1 | inconclusive: 11.2 µM [inhibitor, partial curve, poor fit]
11 | CCN1CCN(S(=O)(=O)c2cc(C(=O)O)ccc2Cl)CC1 | inconclusive: 8.91 µM [inhibitor, partial curve]
12 | O=C(Nc1ccc(F)cc1)C(c1ccccc1)N1CCN(S(=O)(=O)c2ccc3ccccc3c2)CC1 (stereo unspecified) | inconclusive: 3.16 µM [inhibitor, full curve]
13 | Cc1ccc(C)c(CN2C(=O)c3ccccc3S(=O)(=O)c3ccc(C(=O)Nc4ccccc4C(F)(F)F)cc32)c1 | inconclusive: 3.55 µM [inhibitor, partial curve, poor fit]
14 | NC(=O)CC(NC(=O)Cc1cccc2ccccc12)c1ccc(NCc2ccc(F)c(F)c2)c([N+](=O)[O-])c1 (stereo unspecified) | inconclusive: 28.2 µM [inhibitor, single point]
15 | Cc1ccc(C)c(NC(=O)c2cc(-c3cc(C)ccc3O)n[nH]2)c1 | inconclusive: 3.98 µM [inhibitor, full curve, poor fit]
16 | Cc1ccc(NC(=O)CN2C(=O)NC3(CCCCC3C)C2=O)cc1S(=O)(=O)N1CCCCC1 (stereo unspecified) | inconclusive: 11.2 µM [inhibitor, single point]
17 | Cc1cc(-n2c(C)cc(C(=O)COc3ccc(F)c(F)c3)c2C)no1 | inconclusive: 22.4 µM [inhibitor, single point]
18 | Cc1cccc(NC(=S)NNC(=O)c2ccco2)c1 | inactive
19 | Cc1ccc(NC(=O)/C=C/c2ccccc2)c(Br)c1 | inactive
20 | CC1(C)CC(=O)C2=C(C1)Nc1cc3c(cc1C2c1ccc(F)cc1)OCO3 (stereo unspecified) | inconclusive: 28.2 µM [inhibitor, single point]
21 | OCCC1CN(Cc2ccc3cc(Cl)ccc3n2)CCN1Cc1ccsc1 (stereo unspecified) | inconclusive: 28.2 µM [inhibitor, single point]

Row | SMILES | Potency
22 | Cc1cc(=O)oc2cc(OCC(O)CN3CCc4ccccc4C3)ccc12 (stereo unspecified) | inactive
23 | C=CCc1c(C)nc2c(C)cccc2c1SC(=N)N | inconclusive: 28.2 µM [inhibitor, single point]
24 | Cc1cccc(N2CC(C(=O)Nc3ccc4c(c3)OCO4)CC2=O)c1C (stereo unspecified) | inconclusive: 7.08 µM [inhibitor, partial curve, poor fit]
25 | COc1ccc(NC(=O)CN(C)C(=O)c2sc3cc(Cl)ccc3c2Cl)cc1 | inconclusive: 25.1 µM [inhibitor, single point]
26 | Cc1ccc(S(=O)(=O)NC(C(=O)Oc2ccc3c(C(F)(F)F)cc(=O)oc3c2)c2ccccc2)cc1 (stereo unspecified) | inactive
27 | O=S(=O)(Nc1ccc(Cl)cc1NS(=O)(=O)c1ccccc1)c1ccccc1 | inconclusive: 31.6 µM [inhibitor, partial curve, poor fit]
28 | CCc1nnc(NC(=O)c2cc(=O)c3cc(C)c(C)cc3o2)s1 | inactive
29 | CC(C)c1onc(C(=O)N2CCN(C(c3ccccc3)c3ccccc3)CC2)c1[N+](=O)[O-] | active: 2.51 µM
30 | Cc1ccc(CN2CC(C(=O)Nc3ccc(S(=O)(=O)N4CCCCC4)cc3)CC2=O)cc1 (stereo unspecified) | inconclusive: 14.1 µM [inhibitor, single point]
31 | C[C@H](O)[C@@H]1CN2CCc3c([nH]c4ccc(-c5ccc6c(c5)OCO6)cc34)[C@@H]2C[C@@H]1N(C)C(=O)Nc1ccc(F)cc1 | active: 3.98 µM
32 | COP(=O)(OC)c1ccc(NCc2cc(O)ccc2O)cc1 | inactive
33 | CCn1c(C(=O)NCc2cccc(Br)c2)cc2oc3ccccc3c21 | inconclusive: 3.98 µM [inhibitor, partial curve]
34 | COC(=O)c1ccc(NC(=O)c2c(NCc3ccc(C)o3)sc3c2CCCC3)cc1 | inconclusive: 12.6 µM [inhibitor, partial curve, poor fit]
35 | O=C(NC(Cc1ccccc1)C(=O)N1CCCC(C(F)(F)F)C1)c1ccccc1 (stereo unspecified) | inconclusive: 28.2 µM [inhibitor, single point]
36 | CCCCn1nnnc1C1(C)CCC(=O)N1CCCn1ccnc1 (stereo unspecified) | inactive
37 | CCN(CC)S(=O)(=O)c1ccc(C(=O)Nc2nnc(NC(=S)Nc3ccccc3)s2)cc1 | inactive
38 | O=C(NCCO)c1ccc2c3n(nc2c1)-c1ccccc1CO3 | inactive
39 | OCCCNc1ncnc2sc3c(c12)CCN(Cc1ccccc1)C3 | inactive
40 | CCc1ccc(-c2nc3ccc(Br)cc3c(C(=O)O)c2C)s1 | inconclusive: 20 µM [inhibitor, single point] and inconclusive: 11.2 µM [inhibitor, single point]
41 | CCc1cccc(C)c1NC(=O)c1cccc(N(C)C)c1 | inconclusive: 10 µM [inhibitor, single point]

Source: PubChem BioAssay AID624417 (National Center for Advancing Translational Sciences (NCATS), 2012)
